Screen size: about 110,000 compounds; about 230 (0.21%) showed an effect of 50% or more. This is one part of the list.
Molecular target: DPAP1 (Plasmodium falciparum, UniProt Q8IIJ9)
Assay: primary screen, percent inhibition; read by cleavage of a fluorogenic dipeptide substrate; higher = more effect of the substance
Set-up: species or system P. falciparum D10 trophozoite lysates; single well
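Also: 30 min substrate incubation versus DMSO and 10 µM JCP410 controls.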

Chain of DPAP1 (Q8IIJ9 whole entry, looked up): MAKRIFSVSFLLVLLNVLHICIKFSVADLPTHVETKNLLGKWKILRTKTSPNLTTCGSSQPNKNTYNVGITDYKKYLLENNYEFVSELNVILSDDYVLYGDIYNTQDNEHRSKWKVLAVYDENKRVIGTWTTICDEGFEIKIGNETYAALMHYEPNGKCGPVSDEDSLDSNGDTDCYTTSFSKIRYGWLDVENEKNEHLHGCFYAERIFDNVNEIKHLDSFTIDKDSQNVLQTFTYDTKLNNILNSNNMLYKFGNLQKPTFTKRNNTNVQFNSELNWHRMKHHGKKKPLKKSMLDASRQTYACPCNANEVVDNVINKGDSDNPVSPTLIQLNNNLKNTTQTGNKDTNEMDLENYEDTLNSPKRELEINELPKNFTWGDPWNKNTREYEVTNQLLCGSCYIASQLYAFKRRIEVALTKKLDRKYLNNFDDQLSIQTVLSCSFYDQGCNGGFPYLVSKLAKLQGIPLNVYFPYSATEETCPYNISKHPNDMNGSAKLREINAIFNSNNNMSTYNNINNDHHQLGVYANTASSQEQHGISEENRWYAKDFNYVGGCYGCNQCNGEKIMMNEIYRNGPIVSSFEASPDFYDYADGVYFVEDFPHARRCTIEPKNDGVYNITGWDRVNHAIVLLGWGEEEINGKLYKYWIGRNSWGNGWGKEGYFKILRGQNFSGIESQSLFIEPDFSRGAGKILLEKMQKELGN

Point of comparison: `CN1CCN(C(=O)C(c2ccccc2)N2Cc3ccccc3C2=O)CC1` (centres unmarked), “% Inhibition @ 10 uM” value 5.71%. Against it:
- CC(C)(C)OC(=O)N[C@@H](Cc1cccc([N+](=O)[O-])c1)C(=O)NCC#N — lower, 3.19%
- C=C(C)Cn1c(SCC(N)=O)nc2sc3c(c2c1=O)CCC3 — higher, 42.1%
- Cc1cc(Cl)ccc1NC(=O)CN1C(=O)c2cccc3cccc1c23 — lower, -6.25%
- CCOC(=O)c1cnn(CCOC(=O)c2ccc(C)cc2)c1NC(=O)c1ccc(C)cc1 — lower, 0.44%
- Clc1ccc(OCCn2ccnc2)c(Cl)c1 — lower, 1.57%
- C=CCOc1ccc(/C=c2\sc3nc(=O)c(Cc4ccccc4)nn3c2=O)cc1 — lower, 0.487%
- N=C(NOC(=O)Cc1ccccc1)c1cccnc1 — lower, -1.25%
- O=C(O)CC(NC(=O)c1cccs1)c1cccc(Cl)c1 (centres unmarked) — lower, 0.9%
- CC1=CC(=C2C(=O)c3ccccc3C2=O)C=C(C)N1CCOCCO — lower, -1.64%
- O=C(NCCCCc1ccccc1)c1ccc(Br)o1 — lower, -1.07%
- O=C(NC1CC1c1ccccc1)c1cccs1 (centres unmarked) — lower, -2.83%
- COc1ccccc1/C=C/CN(CCCN(C)C)CCCN(C)C — lower, -4.14%
- CS(=O)(=O)N1CCC(C(=O)NCCN2CCN(Cc3ccccc3)CC2)CC1 — lower, 0.387%
- Cc1nc2ncnn2c(C)c1CCC(=O)N1CCC2(CC1)OCCO2 — lower, -2.25%
- CCCN1CCC(N(C)CC(=O)OCC)CC1 — lower, -0.0953%
- COc1ccc(/C=C2\N=C(C3CCCCC3)OC2=O)c(OC)c1 — lower, 0.605%
- FC(F)(F)c1cccc(-c2nnc3ccc4ccccc4n23)c1 — lower, 5.2%
- CN1CCN(C(=O)c2cc(-c3ccccc3O)on2)CC1 — lower, -7.15%
- Cc1nnc2c(NCCCN3CCOCC3)nc3ccccc3n12 — lower, -0.495%
- COc1ccc(OC)c(NC(=O)C2CCC2)c1 — lower, 0.324%
- CCC(=O)N1C(C(=O)NCc2ccc(CC)cc2)CSC12CCN(C)CC2 (centres unmarked) — lower, -0.486%
- CC(C)c1ccc(CNc2ncc(-c3ccc(F)cc3)n2C)cc1 — lower, 0.627%
- O=C(c1ccc(Cl)cc1)N(Cc1ccc(Cl)cc1Cl)c1cccc(Cl)c1 — lower, -2.51%
- O=C(CNS(=O)(=O)c1ccc(Cl)cc1)Nc1ccc2c(c1)OCO2 — lower, 0.196%
- C=CCNC(=O)CN(c1cc(C(F)(F)F)ccc1Cl)S(C)(=O)=O — lower, -0.105%
- O=C(O)c1ccc(NCc2ccc(Br)cc2)cc1 — lower, -3.43%
- CCC(=O)N(CCc1ccc(OC)cc1)C1CC(=O)N(c2ccccc2)C1=O (centres unmarked) — lower, 1.34%
- O=C1C(=O)N2C(=C1C(=O)c1ccccc1)c1ccccc1CC21CCCC1 — lower, -3.09%
- CCCC(=O)Nc1ccc(C(=O)Nc2ccccc2C#N)cc1 — lower, 0.316%
- Cc1nc2ccccc2c2oc(C(=O)NCCCN3CCc4ccccc4C3)cc12 — lower, -3.45%
- CC(C)(CC(=O)O)Cc1nc(-c2ccc(Cl)cc2)no1 — lower, -7.27%
- Cc1ccc(OCC(O)CN2CCN(Cc3ccccc3)CC2)c(C)c1 (centres unmarked) — lower, -5.1%
- COc1ccc(C2=NOC(C(=O)Nc3cc(C)on3)C2)cc1 (centres unmarked) — lower, 3.2%
- Cc1oc(-c2ccccc2F)nc1CSc1nnc(C)n2c1cc1sccc12 — lower, -4.99%
- CCCCn1c(=O)c(C(=O)Nc2cccc(C)c2C)c(O)c2ccccc21 — higher, 6.98%
- COc1ccc(-c2cc(-c3ccccc3)nc(Cl)n2)cc1OC — lower, -1.5%
- CCCc1nc2ccccc2c(=O)n1-c1ccc(O)cc1 — lower, -6.44%
- Fc1ccccc1OCCCCCN1CCCC1 — lower, -0.351%
- COc1cccc(-c2cc(C(=O)NCc3ccc(F)cc3)c3ccccc3n2)c1 — lower, -4.93%
- CCc1ccc(-c2nc(CS(=O)CC(=O)O)c(C)o2)cc1 (centres unmarked) — higher, 7.43%
- O=C(NC1(C(F)(F)F)C(=O)Nc2c1c(=O)[nH]c(=O)n2-c1ccc(Cl)cc1)c1ccc(F)cc1 (centres unmarked) — lower, 1.93%
- O=S(=O)(NC1CCCC1)c1ccc(S(=O)(=O)N2CCN(c3ncccn3)CC2)cc1 — lower, -8.61%
- COc1ccccc1C(=O)Nc1ccc(Cl)cc1 — lower, -1.16%
- COc1ccc(-c2nc(CS(=O)CC(=O)NCCN3CCCCC3C)c(C)o2)cc1OC (centres unmarked) — lower, -3.7%
- CCOC(=O)C1=C(C)N=C(C)/C(=C(/O)OCC)C1c1cccs1 (centres unmarked) — lower, 2.16%
- COc1ccc(Br)cc1CNC(=O)CN1C(=O)CSc2ncccc21 — lower, -1.6%
- COc1ccc(C(=O)N(Cc2nc(-c3ccc(C)cc3)no2)C(C)C)c(OC)c1 — lower, -6.89%
- COC(=O)N1c2ccccc2Sc2ccccc21 — higher, 9.66%
- NC(=O)C1(N2CCCCC2)CCN(C(=O)c2ccc3c(c2)OCO3)CC1 — lower, 2.08%
- CCOc1cc(Br)c(Br)c(C=O)c1O — lower, -4.27%
- O=S1(=O)CCC(SCc2ccccc2)C1 (centres unmarked) — lower, -1.29%
- Cc1cc(Cl)nc(Cl)c1C(=O)Nc1ccccc1F — lower, 3.29%
- CC(Oc1ccc(C(=O)NCCc2ccccc2)cc1)C(=O)O (centres unmarked) — lower, -0.425%
- CCOc1ccc(N2C(=O)C(C)SC23C(=O)N(CN2CCOCC2)c2ccccc23)cc1 (centres unmarked) — higher, 12.5%
- CC(C)CN1Cc2cccc(C(=O)O)c2C1=O — lower, 3.88%
- Cc1ccc(OC(C)C(=O)Nc2ccc3ccccc3c2)cc1 (centres unmarked) — lower, 2.48%
- CC1CN(CC(O)COc2ccc(C(C)(C)C)cc2)CC(C)O1 (centres unmarked) — lower, -2.34%
- Cc1ccc(S(=O)(=O)c2nnn3c2nc(NC2CCCCC2C)c2ccccc23)cc1 (centres unmarked) — lower, -8.82%
- CCOc1ccccc1CNc1ccc(N2CCN(C(C)=O)CC2)cc1 — lower, -2.29%
- CCN(CC)CCNC(=O)c1cnn(-c2ccc(F)cc2)c1C1CCN(C(=O)OC(C)(C)C)CC1 — lower, 4.11%
- Cc1c(CNCCc2cccs2)c(C(=O)O)c(C)n1Cc1ccc(F)cc1 — lower, -0.23%
- CS(=O)(=O)C1=NN2C(=N)/C(=C\c3c[nH]c4ccccc34)C(=O)N=C2S1 — lower, -3.39%
- Clc1ccc(C(NC2CCN(Cc3ccccc3)CC2)c2ccccc2)cc1 (centres unmarked) — lower, -5.2%
- COc1ccc(NS(=O)(=O)c2ccc(NC(=O)COc3ccc(Cl)cc3C)cc2)cc1 — lower, -0.992%
- COc1ccc(C(=O)c2cnc3cc4c(cc3c2N2CCCCC2)OCO4)cc1 — lower, -6.77%
- CCc1ccc(Oc2nc3c(C)cccn3c(=O)c2/C=C(\C#N)C(=O)N2CCOCC2)cc1 — lower, 0.315%
- CCOC(=O)c1oc2cc(O)ccc2c(=O)c1-c1ccc2c(c1)OCCO2 — lower, 3.93%
- CCCn1c(=N)c(C(=O)NCCc2ccccc2)cc2c(=O)n3cc(C)ccc3nc21 — lower, 1.76%
- CCC1CCCCN1Cc1c(C)nc2ccc(C)cc2c1O (centres unmarked) — lower, -4%
- Cc1ccc(-n2nc(C)c(/C=N/c3sc4c(c3C#N)CCC4)c2O)cc1 — lower, 0.674%
- CC(CCCC(C)(C)O)NC1CCN(Cc2ccccc2)CC1 (centres unmarked) — lower, 1.43%
- COc1cccc(NC(=O)CN(c2cc(Cl)ccc2OC)S(C)(=O)=O)c1 — lower, -0.185%
- COc1ccc(-c2noc(N3CCC(C(=O)NCCN4CCc5ccccc5C4)CC3)n2)cc1 — higher, 9.11%
- COc1cc(OC)cc(C(=O)NCc2ccc(-n3cccc3)cc2)c1 — lower, -0.403%
- CN(C)S(=O)(=O)c1ccc(S(=O)(=O)N(Cc2ccc(Cl)cc2)Cc2ccco2)cc1 — lower, -5.15%
- COc1ccc(N(C(C)C(=O)Nc2cccc(Br)c2)S(C)(=O)=O)cc1 (centres unmarked) — lower, 0.793%
- O=C1Oc2ccccc2C(=O)/C1=C(O)/C=C/c1c[nH]c2ccccc12 — lower, -6.91%
- CSC1=NSC2=NC(=O)/C(=C\c3ccc(C)o3)C(=N)N12 — lower, 0.8%
- CCn1c(C)nc2cc(S(=O)(=O)N3CCCC3)ccc21 — lower, -0.415%
- Cc1ccc(S(=O)(=O)NCCc2ccc3c(c2)OCO3)cc1 — lower, 3.53%
- O=C(O)c1cccnc1Oc1ccc2c(c1)OCO2 — lower, -0.631%
- COc1ccc(CCNC(=O)OC(C)(C)C)cc1OC — lower, -1.38%
- Cc1nc2c(c(C)c1CCC(=O)N1CCN(C3CCCCC3)CC1)c(=O)n(C)c(=O)n2C — higher, 52.7%
- COc1cc(/C=C(\C#N)c2nn(CCO)c(N)c2C#N)ccc1OS(=O)(=O)c1ccc(F)cc1 — higher, 19.3%
- CCCNC(=O)c1cc(C)nc2c1c(C)nn2-c1ccc(C)cc1 — lower, -1.97%
- O=C1c2ccccc2C(=O)N1Cc1ccc2ccnc(Oc3ccccc3)c2c1 — lower, 3.96%
- COc1ccc(NS(=O)(=O)c2ccc(Cl)cc2)cc1 — lower, -0.0404%
- CS(=O)(=O)N(Cc1ccc(Cl)cc1)c1ccc(C(=O)NCCc2ccccc2)cc1 — lower, -3.09%
- Cc1ccccc1NC(=O)CC1Sc2ccccc2NC1=O (centres unmarked) — lower, -8.66%
- Cc1nn(C(F)F)c(C)c1C(=O)Nc1ccc(CN2CCCCC2)cc1 — lower, -3.18%
- COc1ccc(C2CC(C(F)(F)F)n3nc(C(=O)NCCN4CCOCC4)cc3N2)cc1 (centres unmarked) — higher, 6.05%
- CCOC(=O)c1c(NC(=O)/C=C/c2ccccc2)sc(C(C)=O)c1C — higher, 20.3%
- O=C(NCCc1nc2ccccc2[nH]1)c1ccccc1 — lower, -6.82%
- COc1ccc2ncc(C(=O)O)c(O)c2c1 — lower, -2.48%
- Clc1ccccc1C1N(Cc2ccccc2)CCN1Cc1ccccc1 — lower, -0.233%
- Cc1cc(=O)n(C)c(=O)n1Cc1ccccc1C#N — lower, -0.222%
- O=C1NC(=O)c2c1cc1c3c2C2C=CCC2CN3CC2CC=CC12 (centres unmarked) — higher, 64.9%
- CCC(=O)Nc1nc(C)nc(C)c1C(C)=O — lower, -3.64%
- N#CC1=C(N)Oc2c(cc(Cl)c3ccccc23)C1c1ccc(Cl)c(Cl)c1 (centres unmarked) — higher, 6.06%
- O=C(Nc1ccc([N+](=O)[O-])cc1)c1cccc(S(=O)(=O)Nc2ccccc2)c1 — lower, 1.64%
